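A five-concentration, 48-hour dose response in 96-well plates underlies each endpoint, interpolated linearly between surrounding concentrations. GI50: concentration for 50% inhibition of growth. Definition used: TGI = concentration required for complete inhibition of growth.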
The compounds below were run on NCI-H322M lung (assay: growth of human tumour cells (NCI), 48 h).

How did the GI50 turn out when `CSc1ccc(/C(=N/N=C(N)N)c2ccc(Cl)cc2)cc1` was run?
Its GI50 is 0.894 µM.

And the TGI?
The TGI was 13.2 µM.

For `Nc1ncc(-c2ccc3ncnc(N4CCc5cc(F)c(F)cc54)c3c2)cn1`, which GI50 is on record?
The GI50 was 2.61 µM.

And the TGI?
Its TGI is greater than 100 µM.

Which GI50 does the source give for `CCc1cccc2c3c(sc12)C(c1ccc(OC)cc1)C(C#N)=C(/N=C/c1ccc(Cl)cc1)O3` (stereo not given) here?
Its GI50 is 5.03 µM.

What about the TGI of the same compound?
The TGI was greater than 100 µM.

What does the source list for `O=C(N/N=C\c1ccc([N+](=O)[O-])cc1)c1ccc2nc(-c3ccc(Br)cc3)[nH]c2c1`?
GI50: 5.39 µM; TGI: > 100 µM

How did the GI50 turn out when `CCCCCCNC(=O)Oc1ccc(/C(=C(/C)c2ccccc2)c2ccc(OCCN3CCCCCC3)cc2)cc1` was run?
Its GI50 is 14.9 µM.

What about the TGI of the same compound?
Its TGI is 32.6 µM.

— PubChem BioAssay (NCI)
